According to PMC9911399, “Two distinct binding modes provide the RNA-binding protein RbFox with extraordinary sequence specificity”:
Substitutions are numbered along the chain they refer to; changes in the protein carry UniProt numbers. The list shows a part of the results.

T1: RBFOX1 RRM RbFoxmut (Fox-RRM*) (Homo sapiens, UniProt Q9NWB1 109-208, R118D;E147R;N151S;E152T)
T1 sequence: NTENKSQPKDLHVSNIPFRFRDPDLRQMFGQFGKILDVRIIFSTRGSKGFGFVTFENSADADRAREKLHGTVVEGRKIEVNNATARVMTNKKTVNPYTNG

B1: UCUGACA (DNA:RNA)
RNA: GGGAGACCGGAAUUCAGAUUGUCCUCUGACAUUAAAUCCCGUCGUAGCCACCA
DNA 1: CAATCTGAATTCCGGTCTCCC
DNA 2: TGGTGGCTACGACGGGATT
B2: CCCGCAG (DNA:RNA)
RNA: B1 RNA with U25C, U27C, A29C, C30A, A31G
DNA 1: CAATCTGAATTCCGGTCTCCC
DNA 2: TGGTGGCTACGACGGGATT
B3: CCCUGCA (DNA:RNA)
RNA: B1 RNA with U25C, U27C, G28U, A29G
DNA 1: CAATCTGAATTCCGGTCTCCC
DNA 2: TGGTGGCTACGACGGGATT
B4: CUGUGCG (DNA:RNA)
RNA: B1 RNA with U25C, C26U, U27G, G28U, A29G, A31G
DNA 1: CAATCTGAATTCCGGTCTCCC
DNA 2: TGGTGGCTACGACGGGATT
B5: GAGAAAU (DNA:RNA)
RNA: B1 RNA with U25G, C26A, U27G, G28A, C30A, A31U
DNA 1: CAATCTGAATTCCGGTCTCCC
DNA 2: TGGTGGCTACGACGGGATT
B6: CAUAUUA (DNA:RNA)
RNA: B1 RNA with U25C, C26A, G28A, A29U, C30U
DNA 1: CAATCTGAATTCCGGTCTCCC
DNA 2: TGGTGGCTACGACGGGATT
B7: GGACACC (DNA:RNA)
RNA: B1 RNA with U25G, C26G, U27A, G28C, A31C
DNA 1: CAATCTGAATTCCGGTCTCCC
DNA 2: TGGTGGCTACGACGGGATT
B8: GUAUACG (DNA:RNA)
RNA: B1 RNA with U25G, C26U, U27A, G28U, A31G
DNA 1: CAATCTGAATTCCGGTCTCCC
DNA 2: TGGTGGCTACGACGGGATT
B9: AGGCAUC (DNA:RNA)
RNA: B1 RNA with U25A, C26G, U27G, G28C, C30U, A31C
DNA 1: CAATCTGAATTCCGGTCTCCC
DNA 2: TGGTGGCTACGACGGGATT
B10: UAUGAUG (DNA:RNA)
RNA: B1 RNA with C26A, C30U, A31G
DNA 1: CAATCTGAATTCCGGTCTCCC
DNA 2: TGGTGGCTACGACGGGATT
B11: CAACGGA (DNA:RNA)
RNA: B1 RNA with U25C, C26A, U27A, G28C, A29G, C30G
DNA 1: CAATCTGAATTCCGGTCTCCC
DNA 2: TGGTGGCTACGACGGGATT
B12: UACACUA (DNA:RNA)
RNA: B1 RNA with C26A, U27C, G28A, A29C, C30U
DNA 1: CAATCTGAATTCCGGTCTCCC
DNA 2: TGGTGGCTACGACGGGATT
B13: AUACAAG (DNA:RNA)
RNA: B1 RNA with U25A, C26U, U27A, G28C, C30A, A31G
DNA 1: CAATCTGAATTCCGGTCTCCC
DNA 2: TGGTGGCTACGACGGGATT
B14: AUACUAC (DNA:RNA)
RNA: GGGAGACCGGAAUUCAGAUUGUCCAUACUACUUAAAUCCCGUCGUAGCCACCA
DNA 1: CAATCTGAATTCCGGTCTCCC
DNA 2: TGGTGGCTACGACGGGATT
B15: CAGGACG (DNA:RNA)
RNA: B1 RNA with U25C, C26A, U27G, A31G
DNA 1: CAATCTGAATTCCGGTCTCCC
DNA 2: TGGTGGCTACGACGGGATT
B16: UGGUCAA (DNA:RNA)
RNA: B1 RNA with C26G, U27G, G28U, A29C, C30A
DNA 1: CAATCTGAATTCCGGTCTCCC
DNA 2: TGGTGGCTACGACGGGATT
B17: CUAUCUA (DNA:RNA)
RNA: B14 RNA with A25C, C28U, U29C, A30U, C31A
DNA 1: CAATCTGAATTCCGGTCTCCC
DNA 2: TGGTGGCTACGACGGGATT
B18: ACAUAUC (DNA:RNA)
RNA: B14 RNA with U26C, C28U, U29A, A30U
DNA 1: CAATCTGAATTCCGGTCTCCC
DNA 2: TGGTGGCTACGACGGGATT
B19: CCCCUAG (DNA:RNA)
RNA: B14 RNA with A25C, U26C, A27C, C31G
DNA 1: CAATCTGAATTCCGGTCTCCC
DNA 2: TGGTGGCTACGACGGGATT
B20: GGAUUUU (DNA:RNA)
RNA: B14 RNA with A25G, U26G, C28U, A30U, C31U
DNA 1: CAATCTGAATTCCGGTCTCCC
DNA 2: TGGTGGCTACGACGGGATT
B21: UCUUAAA (DNA:RNA)
RNA: B1 RNA with G28U, C30A
DNA 1: CAATCTGAATTCCGGTCTCCC
DNA 2: TGGTGGCTACGACGGGATT
B22: AUUAUAG (DNA:RNA)
RNA: B14 RNA with A27U, C28A, C31G
DNA 1: CAATCTGAATTCCGGTCTCCC
DNA 2: TGGTGGCTACGACGGGATT
B23: ACAACAG (DNA:RNA)
RNA: B14 RNA with U26C, C28A, U29C, C31G
DNA 1: CAATCTGAATTCCGGTCTCCC
DNA 2: TGGTGGCTACGACGGGATT
B24: CCGCGUC (DNA:RNA)
RNA: B14 RNA with A25C, U26C, A27G, U29G, A30U
DNA 1: CAATCTGAATTCCGGTCTCCC
DNA 2: TGGTGGCTACGACGGGATT
B25: ACCAGAG (DNA:RNA)
RNA: B14 RNA with U26C, A27C, C28A, U29G, C31G
DNA 1: CAATCTGAATTCCGGTCTCCC
DNA 2: TGGTGGCTACGACGGGATT
B26: UGGGCGG (DNA:RNA)
RNA: B1 RNA with C26G, U27G, A29C, C30G, A31G
DNA 1: CAATCTGAATTCCGGTCTCCC
DNA 2: TGGTGGCTACGACGGGATT
B27: GGAGUUU (DNA:RNA)
RNA: B14 RNA with A25G, U26G, C28G, A30U, C31U
DNA 1: CAATCTGAATTCCGGTCTCCC
DNA 2: TGGTGGCTACGACGGGATT
B28: CGUAUUG (DNA:RNA)
RNA: B14 RNA with A25C, U26G, A27U, C28A, A30U, C31G
DNA 1: CAATCTGAATTCCGGTCTCCC
DNA 2: TGGTGGCTACGACGGGATT
B29: AGCUGGA (DNA:RNA)
RNA: B14 RNA with U26G, A27C, C28U, U29G, A30G, C31A
DNA 1: CAATCTGAATTCCGGTCTCCC
DNA 2: TGGTGGCTACGACGGGATT
B30: AGACGUC (DNA:RNA)
RNA: B14 RNA with U26G, U29G, A30U
DNA 1: CAATCTGAATTCCGGTCTCCC
DNA 2: TGGTGGCTACGACGGGATT
B31: UCGAACU (DNA:RNA)
RNA: B1 RNA with U27G, G28A, A31U
DNA 1: CAATCTGAATTCCGGTCTCCC
DNA 2: TGGTGGCTACGACGGGATT

target: T1, RBFOX1 RRM RbFoxmut (Fox-RRM*); experiment: EMSA; HiTS-Eq, 1 nM pool, 10 min; buffer printed only for the single-RNA assays: 10 mM Tris pH 7.5, 150 mM NaCl, 3.4 mM EDTA, 0.001% NP-40, 30 C; conditions: tags: His6 N-terminal (pET28a); label: 5' 32P
In short: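 Purified RbFox RRM (wild type or mutant) was equilibrated for 10 min in 50 µL with 1 nM of a 5′-radiolabelled pool of RNA with 7 randomized nucleotides, its flanks annealed to DNA oligonucleotides, across increasing protein concentrations. Free RNA was separated by 8% native PAGE, excised, reverse-transcribed, PCR-barcoded and sequenced on an Illumina HiSeq 2500. Relative association constants came from read-count changes of each variant against the control reaction, normalised to the cognate motif.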

| Binder | binding signal |
| --- | --- |
| B1 | 0.0549 KA relative to UGCAUGU |
| B2 | 0.102 KA relative to UGCAUGU |
| B3 | 0.186 KA relative to UGCAUGU |
| B4 | 0.257 KA relative to UGCAUGU |
| B5 | 0.0893 KA relative to UGCAUGU |
| B6 | 0.115 KA relative to UGCAUGU |
| B7 | 0.0634 KA relative to UGCAUGU |
| B8 | 0.148 KA relative to UGCAUGU |
| B9 | 0.222 KA relative to UGCAUGU |
| B10 | 0.0936 KA relative to UGCAUGU |
| B11 | 0.0691 KA relative to UGCAUGU |
| B12 | 0.0954 KA relative to UGCAUGU |
| B13 | 0.0924 KA relative to UGCAUGU |
| B14 | 0.114 KA relative to UGCAUGU |
| B15 | 0.0697 KA relative to UGCAUGU |
| B16 | 0.0865 KA relative to UGCAUGU |

| Binder | binding signal |
| --- | --- |
| B17 | 0.0864 KA relative to UGCAUGU |
| B18 | 0.0991 KA relative to UGCAUGU |
| B19 | 0.11 KA relative to UGCAUGU |
| B20 | 0.0826 KA relative to UGCAUGU |
| B21 | 0.0977 KA relative to UGCAUGU |
| B22 | 0.154 KA relative to UGCAUGU |
| B23 | 0.0867 KA relative to UGCAUGU |
| B24 | 0.121 KA relative to UGCAUGU |
| B25 | 0.145 KA relative to UGCAUGU |
| B26 | 0.131 KA relative to UGCAUGU |
| B27 | 0.0946 KA relative to UGCAUGU |
| B28 | 0.252 KA relative to UGCAUGU |
| B29 | 0.0719 KA relative to UGCAUGU |
| B30 | 0.0685 KA relative to UGCAUGU |
| B31 | 0.0723 KA relative to UGCAUGU |
